Measured values published in PubChem BioAssay AID1347165 (National Center for Advancing Translational Sciences (NCATS), 2019).
In all, about 220,000 compounds went through this assay and about 5,700 (2.6%) were called active. Inconclusive results, whose numbers are uncertain, are shown with a selection of clear calls. Calls come from the whole dose curve; as a rule, active = well fitted inhibition curve with a large enough effect; inconclusive = small, poorly fitted or top-dose-only effect; inactive = no such curve, though single readings can be large or run the other way. Potencies of inconclusive entries are doubtful fits and often do not repeat.

The molecules below were run against Lysine-specific demethylase 5B (Homo sapiens) (UniProt Q9UGL1) (assay: Primary screen for KDM5B Histone Demethylases FDH-coupled qHTS). Details: FDH-coupled NADH fluorescence (FDH is formaldehyde dehydrogenase); activity change, negative = inhibition: at 57.7 µM (top of the series) unless noted.
Summary of the method: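 Compound dilutions met 200 nM (final) KDM5BΔAP for 10 min at room temperature before substrate addition. The substrate mix held 12.5 µM H3K4me3 with cofactors 25 µM α-ketoglutarate and 50 µM Fe²⁺. NADH signal gain over 30 min defined activity.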
Note: nearly all actives have a fitted effect of over 70% in size.
Potency is the fitted concentration of half-maximal effect; tags give direction and shape of the fitted curve.
Throughout, for activity change, negative = inhibition: 0% is about no effect.

Sequence of UniProt Q9UGL1 (Q9UGL1 whole entry, looked up): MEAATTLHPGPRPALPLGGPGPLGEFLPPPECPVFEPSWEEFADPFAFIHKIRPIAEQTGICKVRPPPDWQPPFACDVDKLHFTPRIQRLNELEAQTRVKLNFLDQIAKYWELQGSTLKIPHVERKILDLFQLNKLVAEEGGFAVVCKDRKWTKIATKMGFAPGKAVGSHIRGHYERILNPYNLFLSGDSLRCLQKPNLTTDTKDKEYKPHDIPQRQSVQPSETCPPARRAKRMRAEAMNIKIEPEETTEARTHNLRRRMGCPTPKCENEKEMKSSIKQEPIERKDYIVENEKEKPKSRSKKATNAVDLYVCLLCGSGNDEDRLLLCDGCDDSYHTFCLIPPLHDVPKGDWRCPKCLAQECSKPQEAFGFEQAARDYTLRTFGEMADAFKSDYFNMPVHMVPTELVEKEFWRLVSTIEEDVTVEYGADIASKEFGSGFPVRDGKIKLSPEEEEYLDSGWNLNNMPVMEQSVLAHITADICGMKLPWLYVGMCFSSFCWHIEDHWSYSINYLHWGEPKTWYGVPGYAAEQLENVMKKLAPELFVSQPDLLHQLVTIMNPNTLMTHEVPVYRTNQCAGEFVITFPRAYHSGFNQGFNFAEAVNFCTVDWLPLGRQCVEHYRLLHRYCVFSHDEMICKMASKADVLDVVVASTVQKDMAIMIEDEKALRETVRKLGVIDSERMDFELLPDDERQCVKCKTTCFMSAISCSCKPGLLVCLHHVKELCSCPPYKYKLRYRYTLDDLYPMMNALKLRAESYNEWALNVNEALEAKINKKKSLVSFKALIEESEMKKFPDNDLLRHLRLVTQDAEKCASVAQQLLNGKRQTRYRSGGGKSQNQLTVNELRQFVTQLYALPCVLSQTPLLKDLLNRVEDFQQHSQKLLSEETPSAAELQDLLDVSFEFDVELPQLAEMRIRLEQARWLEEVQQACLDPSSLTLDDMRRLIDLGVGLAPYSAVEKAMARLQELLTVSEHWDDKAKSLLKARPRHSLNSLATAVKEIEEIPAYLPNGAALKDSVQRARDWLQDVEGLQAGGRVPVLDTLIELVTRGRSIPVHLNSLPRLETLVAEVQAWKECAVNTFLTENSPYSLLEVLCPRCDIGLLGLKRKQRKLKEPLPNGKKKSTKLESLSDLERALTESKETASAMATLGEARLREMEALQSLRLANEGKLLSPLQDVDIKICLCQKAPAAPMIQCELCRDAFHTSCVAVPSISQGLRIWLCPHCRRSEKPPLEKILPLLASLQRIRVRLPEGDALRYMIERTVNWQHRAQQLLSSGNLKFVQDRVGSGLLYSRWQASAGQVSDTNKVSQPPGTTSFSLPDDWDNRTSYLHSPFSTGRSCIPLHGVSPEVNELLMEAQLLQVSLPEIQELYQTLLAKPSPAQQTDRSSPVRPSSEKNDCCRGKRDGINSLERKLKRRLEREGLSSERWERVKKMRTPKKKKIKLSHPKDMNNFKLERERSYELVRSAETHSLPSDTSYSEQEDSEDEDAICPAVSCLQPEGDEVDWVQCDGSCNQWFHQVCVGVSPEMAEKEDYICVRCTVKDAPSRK

SMILES | Potency | activity change, negative = inhibition
CCn1cc(CN2CCN(C(=O)c3sccc3C)CC2)ccc1=O | inconclusive: 14.1 µM [inhibitor, partial curve] | 
CC(C)c1ccc(CC(=O)N2CCCc3ncc(C(=O)Nc4ccccc4)cc32)cc1 | inconclusive: 56.2 µM [inhibitor, single point] | 
COCc1ccc2c(c1)c(OC(C)(C)C(=O)N1CCOCC1)nn2Cc1ccccc1 | inconclusive: 39.8 µM [inhibitor, partial curve, poor fit] | 
CCCNC(=O)c1nnn(-c2ccc(C)cc2)c1CCC | inactive | 
N#Cc1cccc(CN2CC[C@H]3C(=O)NCCCCCCN(Cc4ccncc4)[C@@H]3C2)c1 | inconclusive: 20 µM [inhibitor, partial curve, poor fit] | 
COc1ccc(NC(=O)Nc2nnc(N3CCCCCC3)s2)cc1 | inactive | 
CCOc1nccnc1NC1CCN(C(=O)c2cccs2)CC1 | inconclusive: 31.6 µM [inhibitor, partial curve, poor fit] | 
COc1ccc(CCC(=O)N2CC[C@H](CO)[C@H](NC(=O)C3CC3)C2)cc1 | inconclusive: 20 µM [inhibitor, partial curve, poor fit] | 
CC(C)CNc1nc(-c2ccc(S(=O)(=O)N3CCCC3)cc2)cs1 | inconclusive: 31.6 µM [inhibitor, partial curve, poor fit] | 
O=C(NCc1ccc(F)cc1)c1nc(-c2ccc(Cl)cc2)c2ccccn12 | active: 25.1 µM | 
Cc1ccc2c(n1)N(C)[C@H](CO)CCN(Cc1ccc(C(C)C)cc1)C2 | inconclusive: 31.6 µM [inhibitor, partial curve, poor fit] | 
CCOc1ccc(NC(=O)c2ccc(NC(=O)CCS(=O)(=O)c3cccs3)cc2)cc1 |  | inconclusive: -40.8% [inhibitor]
COc1ccc(-c2nc(NC(=O)c3cc(OC)c(OC)c(OC)c3)sc2C)cc1 | inconclusive: 31.6 µM [inhibitor, partial curve, poor fit] | 
COc1ccc2[nH]c3c(c2c1)CCNC31CCN(C(=O)C(C)(C)C)CC1 | active: 25.1 µM | 
O=C(NC1CCCCCC1)c1ccc(Oc2nccnc2N2CCCCC2)cc1 | inactive | 
CCCn1nc(C(=O)Nc2nc(C)c(C(C)=O)s2)c2ccccc2c1=O | inactive | 
CN(Cc1ccccc1)C(=O)c1cc2c(=O)n3ccccc3nc2s1 | inconclusive: 1.78 µM [inhibitor, partial curve, poor fit] | 
CCOc1ccc(CCNC(=O)CCc2c(C)nc3c(c(C)nn3-c3ccccc3)c2C)cc1OCC | inconclusive: 35.5 µM [inhibitor, partial curve, poor fit] | 
